# Measured values taken from the BET-seq Pho4 binding data (Le et al. 2018).
# The other results are listed elsewhere or left out. The energies were worked out here from pooled read counts, against the library average; single values are noisy.
# Molecular target: T1, Pho4 (S. cerevisiae) (UniProt P07270)
# T1 sequence: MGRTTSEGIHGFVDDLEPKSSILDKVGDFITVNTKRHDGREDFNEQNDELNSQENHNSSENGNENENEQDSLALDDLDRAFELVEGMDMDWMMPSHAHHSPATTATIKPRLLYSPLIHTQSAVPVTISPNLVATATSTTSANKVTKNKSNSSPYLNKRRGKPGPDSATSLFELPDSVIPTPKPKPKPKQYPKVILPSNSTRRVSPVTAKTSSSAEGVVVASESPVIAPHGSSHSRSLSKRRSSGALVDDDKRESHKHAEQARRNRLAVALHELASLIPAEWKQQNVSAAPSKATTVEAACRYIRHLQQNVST
# Assay: relative binding free energy (BET-seq); higher = weaker binding
# Settings: reference: library average
row,Sequence,relative binding free energy [kcal/mol]
1,GATTACACGTGAGGAG,0.4
2,GTAGTCACGTGTAGTT,0.25
3,GTTTTCACGTGTTGTC,0.31
4,TAATACACGTGGCTGG,-0.02
5,TCTTACACGTGGGTAG,-0.05
6,GTTGCCACGTGTAGGC,0.1
7,GTGGACACGTGTCTTG,0.04
8,TATTACACGTGCTTGG,0.1
9,GGGGGCACGTGTGCAT,-0.09
10,TTCTTCACGTGTAGTA,0.18
11,TAGGCCACGTGTAGTT,-0.03
12,GCTTTCACGTGTATTT,0.28
13,GGCAGCACGTGTGTTG,-0.06
14,GGAAACACGTGGGCTG,-0.05
15,GTGTGCACGTGGAAGC,0.06
16,GGTCACACGTGTGGAT,0.16
17,ATTTCCACGTGGAGGT,-0.04
18,GGGTTCACGTGGGGCC,0.23
19,GGTGACACGTGCCGGT,0.01
20,TCGTTCACGTGACGGG,0.39
21,TTTTGCACGTGTCATG,0.13
22,AGGAACACGTGTAGGT,0.03
23,TTTCGCACGTGAGTAG,0.02
24,ATGCGCACGTGGTTTT,-0.2
25,TTAAGCACGTGAAAAT,0.34
26,AAGGGCACGTGCTTGT,-0.16

row,Sequence,relative binding free energy [kcal/mol]
1,TCTTCCACGTGGTGTT,0.12
2,GGAGTCACGTGCGTAT,0.03
3,GGCTGCACGTGGCAGG,0.06
4,GGTAACACGTGTACTG,0.08
5,TAGCACACGTGTGATT,0.24
6,GGCGCCACGTGTGGCT,0.08
7,GTGTTCACGTGGGCAG,0.25
8,GGAGGCACGTGGGTTG,-0.21
9,AGGGGCACGTGCAGGA,-0.19
10,AAAGGCACGTGAATGG,0.22
11,CGTTGCACGTGATCGG,0.07
12,AAAGGCACGTGGGATT,-0.02
13,GTAAGCACGTGGTGCA,-0.19
14,TAAGTCACGTGTTATT,0.19
15,TGGACCACGTGTAGTT,0.08
16,CTAGGCACGTGTTAGA,-0.09
17,GCGCGCACGTGGGAGT,-0.17
18,TGGTACACGTGTGCAA,0.1
19,GATTACACGTGGGTCG,0.04
20,TTACTCACGTGTGCGT,0.24
21,ATAATCACGTGTGCTG,0.11
22,TATTACACGTGATAAG,0.09
23,TGTTTCACGTGTACGG,0.41
24,GGTGGCACGTGTGGCT,0
25,TACGCCACGTGGGGGT,-0.25
26,GGGGACACGTGAAATA,0.44

row,Sequence,relative binding free energy [kcal/mol]
1,TTTAACACGTGTGTAT,-0.07
2,TGTTCCACGTGGATTA,-0.02
3,CGACACACGTGGTGGG,0.08
4,AGGCACACGTGTTGTT,-0.07
5,GTTAGCACGTGAGTTT,0.3
6,ATCAGCACGTGGGGTC,-0.1
7,TTTAGCACGTGAGTAG,0.24
8,GGCCGCACGTGGGAGG,-0.11
9,TCGGTCACGTGAGGTG,0.27
10,GTCTCCACGTGGGGGA,-0.01
11,CATTTCACGTGGTGGA,0.23
12,CATGGCACGTGTACTG,0.06
13,TATATCACGTGACGTG,0.19
14,TTGAGCACGTGGCGAT,-0.13
15,ATTGGCACGTGACTTA,0
16,AATGCCACGTGCGGTG,-0.11
17,TCTGTCACGTGTTAGG,0.03
18,CCAGGCACGTGTTGGG,-0.02
19,GTGTTCACGTGAGTTG,0.36
20,ATTAGCACGTGGGACT,-0.19
21,CTTGACACGTGAGTTA,0.08
22,TGCAACACGTGTAGAG,0.15
23,ATCAGCACGTGGGTGG,-0.1
24,GACTACACGTGTGTTG,0.18
25,TTGATCACGTGGAGTT,0.2
26,AGGGGCACGTGTTAAA,-0.07

row,Sequence,relative binding free energy [kcal/mol]
1,AATGGCACGTGGTTGC,-0.13
2,TATGGCACGTGACGAT,0.12
3,AGATTCACGTGTGTGC,0.15
4,TCTGCCACGTGTTGGA,0.09
5,GGATTCACGTGTTCTG,0.31
6,TATCGCACGTGTTTTT,0
7,CTGGACACGTGAGGCT,0.29
8,TGTGCCACGTGGAATT,0.06
9,AGATTCACGTGCGTGG,0.29
10,GTCGTCACGTGCTTTG,0.11
11,GGTGGCACGTGTGCTA,0.01
12,TATTACACGTGGGGTC,-0.07
13,TCCGGCACGTGTGTTT,-0.06
14,TTTTGCACGTGGAAAG,-0.02
15,AGTGGCACGTGCCGGA,-0.24
16,ATGAGCACGTGGTTGT,-0.15
17,GGTGTCACGTGGCAGG,-0.02
18,TGTTACACGTGCAGGA,0.09
19,TAATTCACGTGAGTTG,0.37
20,TAGTTCACGTGATTGA,0.26
21,TGAAGCACGTGGTGAT,-0.12
22,TAATACACGTGTGATA,0.1
23,GGTACCACGTGTGTTA,0.06
24,AGAGTCACGTGGTGTT,0.13
25,AGGCACACGTGGTATT,0.02
26,TGTTTCACGTGGTAGC,0.35

row,Sequence,relative binding free energy [kcal/mol]
1,TGGGACACGTGGGAAG,0.08
2,GGGCGCACGTGGTGAG,-0.05
3,TAGCACACGTGGGTGG,-0.04
4,TTGCACACGTGGGGAT,-0.03
5,TGGGTCACGTGTTTTT,0.22
6,GGTATCACGTGAGTAT,0.45
7,ATTCGCACGTGTATGT,-0.13
8,GGTCTCACGTGCAGTG,0.19
9,CTTGTCACGTGTGGAA,0.1
10,TGTGACACGTGTACAG,0.09
11,AGAGTCACGTGCGATT,0.29
12,TCTTTCACGTGGTTGT,0.14
13,AAGAGCACGTGGGCAG,-0.23
14,GGGAGCACGTGAGTAT,0.16
15,ACGGTCACGTGTAGGG,0.19
16,TATTCCACGTGCGTGT,0.05
17,GTCATCACGTGAGGGA,0.35
18,TGCGGCACGTGCGGGC,-0.07
19,TAGGTCACGTGGTGTC,0.15
20,GGCGCCACGTGGGGGT,-0.24
21,TTCATCACGTGTAGGG,0.16
22,GGGTACACGTGCCTGT,0.09
23,ACTGTCACGTGGATTG,0.17
24,TGGGGCACGTGCGCTA,-0.22
25,CTTAGCACGTGAGGAG,0.23
26,GCGTGCACGTGGGGAG,-0.26

row,Sequence,relative binding free energy [kcal/mol]
1,CTTTACACGTGGATGT,0.11
2,TTATGCACGTGAGGGG,0.17
3,GTTGTCACGTGGATTC,0.23
4,TATTTCACGTGCGCGT,0.17
5,TAAGTCACGTGGGGAG,0.06
6,AGCAGCACGTGCGGTG,-0.14
7,TCGTGCACGTGTGTCT,-0.07
8,GGAGTCACGTGCGTGG,0.18
9,GTGGCCACGTGGGGCG,-0.1
10,ATCTGCACGTGTTGGT,0.19
11,GGTGACACGTGCTTTG,-0.01
12,TGGTTCACGTGGAATC,0.3
13,AATAGCACGTGTAGGT,-0.03
14,TGCATCACGTGAGTGG,0.24
15,ACGGGCACGTGGGGAG,-0.22
16,GGTAGCACGTGTAGTT,0.03
17,TAACTCACGTGGTTAT,0.11
18,TCATTCACGTGGCTTT,0.19
19,GTCGGCACGTGTAAGA,0.18
20,GCGTTCACGTGGGGTG,0.18
21,GTGTCCACGTGGTTGA,-0.07
22,TTCTTCACGTGAGTTT,0.33
23,GGTTCCACGTGAGATG,0.3
24,CTGGTCACGTGTTTGC,0.11
25,CGGTTCACGTGTGTAA,0.2
26,GGTAGCACGTGGGTAC,-0.14

row,Sequence,relative binding free energy [kcal/mol]
1,CTGATCACGTGGTGTA,-0.1
2,CATGGCACGTGTCGGG,-0.24
3,TGGCGCACGTGCTGTT,-0.22
4,GTAGCCACGTGTGATG,0.06
5,TCGTGCACGTGGCGGG,-0.06
6,GTTGCCACGTGCGGCG,-0.08
7,GGTCACACGTGATAGT,0.34
8,GAGGGCACGTGCGGTA,-0.17
9,GATTTCACGTGGAATG,0.48
10,TAGGACACGTGGTCGT,-0.18
11,GGAGGCACGTGGGATT,0.02
12,TTTAACACGTGTGGCT,0.17
13,CTGGTCACGTGAGATG,0.36
14,GCTGTCACGTGGCATG,0.05
15,CTTTGCACGTGTGTTC,0.1
16,GCTGACACGTGGTGAG,-0.08
17,ATAATCACGTGCTGTT,-0.07
18,GCTGTCACGTGCGTTT,0.14
19,TAGGTCACGTGCTTTT,0.13
20,GGGAACACGTGGTTGA,-0.05
21,TATTACACGTGGATTG,0.14
22,ATTACCACGTGTTGGT,0.06
23,TTTTTCACGTGTGTAA,0.28
24,GTGTACACGTGTATGC,-0.01
25,TATGTCACGTGAGGGC,0.39
26,CCGGGCACGTGAAGGG,-0.06

row,Sequence,relative binding free energy [kcal/mol]
1,GTGCACACGTGGTGTT,-0.07
2,TTAACCACGTGGTGGT,-0.16
3,TTGATCACGTGAGGGA,0.32
4,TTGGTCACGTGATTTG,0.38
5,ATGCACACGTGTTGTT,0.03
6,GTGTCCACGTGGTTGC,0.05
7,GTGGACACGTGGGATC,-0.02
8,TTAGGCACGTGATTAT,0.04
9,GAGGACACGTGGTGTC,-0.01
10,GAGAACACGTGGTGTA,-0.06
11,TGTGTCACGTGTTCAT,0.08
12,CTGATCACGTGGGCGT,0.14
13,CGAAGCACGTGTTGTT,-0.04
14,AAGGACACGTGTTATA,0.02
15,GATGTCACGTGATGAT,0.4
16,AGGTTCACGTGTAGAG,0.28
17,TATATCACGTGAGATT,0.32
18,TAAGACACGTGTAGTG,-0.04
19,TAGTGCACGTGTGGCT,-0.03
20,TCATTCACGTGTCGGT,0.25
21,GTATTCACGTGTGAAG,0.21
22,ATAGTCACGTGGGATT,0.03
23,TGTGGCACGTGCATAG,-0.22
24,CTGTTCACGTGTTGGT,0.16
25,AGAGTCACGTGGTGCT,0.12
26,TGATGCACGTGTAATT,0.2

row,Sequence,relative binding free energy [kcal/mol]
1,GTAAGCACGTGCGGTG,-0.17
2,ATTCGCACGTGTTAGT,0.05
3,TATAGCACGTGGAGTT,-0.09
4,AATTACACGTGTTGCA,0.3
5,GTAGGCACGTGATGAG,0.01
6,ATGGGCACGTGGGAAA,-0.07
7,CTTGACACGTGGTTAG,-0.05
8,GGAAGCACGTGAAGTA,0.2
9,CGGTGCACGTGTCTTG,-0.07
10,CGTTACACGTGGTAGT,0.03
11,AGGAGCACGTGGGGCT,-0.25
12,AACGTCACGTGAGTAG,0.39
13,ATTGTCACGTGCATTT,0.01
14,ATTTTCACGTGCATAT,0.19
15,AAATCCACGTGTGTGT,0.05
16,GCTAGCACGTGTGGGG,0.02
17,TAGATCACGTGATAGG,0.15
18,TTGTGCACGTGTGGCA,0.06
19,TTTATCACGTGGGATG,0.08
20,TTCAGCACGTGAGGGA,0.05
21,AGGGCCACGTGAGAAG,0.21
22,GGGGCCACGTGGAAAT,0.16
